# Assay results published in PubChem BioAssay AID485313 (National Center for Advancing Translational Sciences (NCATS), 2010).
# Hit rate of the full screen: of about 320,000 compounds, about 7,600 (2.4%) were called active. Inconclusive results, whose numbers are uncertain, are shown with a selection of clear calls. The call rests on the fitted dose curve; in most records, active means well fitted activation curve with a large enough effect; inconclusive means small, poorly fitted or top-dose-only effect; inactive means no such curve, though single readings can be large or run the other way. Potencies of inconclusive entries are left out as doubtful fits.
# Assay: qHTS Assay for NPC1 Promoter Activators; further: nearly all actives have a fitted effect of over 60% in size;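 on activation: reporter is driven by a mutant NPC1 promoter; % of control where 0% means no effect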
# Details: Huh7 NPC1 promoter luciferase reporter, 24 h; series mostly up to 9.22 µM
# Summary of the method: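 Stably transfected Huh7 (NPC1 promoter→luciferase), 1500 cells/well in Opti-MEM + 10% FBS, 2 h settle, then compound 24 h at 37 °C. Luminescence after 10 min with Amplite reagent.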
# Potency means the concentration at half of the fitted maximal effect; tags describe the fitted curve by direction and shape.
SMILES,Potency,activation
Cc1cccc(C(=O)NNC(=O)c2ccccc2O)c1,active: 3.16 µM,–
O=C(CCCc1nc2ccccc2s1)NCc1ccc(F)cc1,inactive,–
COc1ccc(NCc2nc3ccccc3n2C)cc1,active: 1.78 µM,–
COC(=O)c1ccc(/C=N/N2C(C)CCCC2C)cc1 (stereo not drawn),"inconclusive [activator, partial curve]",–
CC(C)(C)OC(=O)N/N=C\c1ccc(OC(=O)c2ccco2)cc1,"inconclusive [activator, partial curve]",–
CN(C(=O)c1ccc2c(c1)OCO2)C1CCCCC1,"inconclusive [activator, partial curve]",–
CC1CCC(NC(=O)CN2C(=O)c3cccnc3Oc3ccc(Cl)cc32)CC1 (stereo not drawn),inactive,–
CC1CCN(C(=O)Nc2ccc3nsnc3c2)CC1,"inconclusive [activator, partial curve]",–
O=C(Nc1ccccc1)Nc1ccc2ocnc2c1,"inconclusive [activator, single point]",–
c1ccc(-c2noc(-c3cccs3)n2)nc1,active: 0.398 µM,–
Cc1cccc(Nc2nc(N)nc(CSc3nccn3C)n2)c1,"inconclusive [activator, partial curve]",–
COc1ccc2cc(C(=O)/C=C/c3cc(OC)c(O)c(OC)c3)ccc2c1,"inconclusive [activator, single point]",–
CCc1ccc(C(=O)CCC(=O)Nc2ccc(OC)c(S(=O)(=O)N3CCCCC3)c2)cc1,inactive,–
CCOc1ccc(N=C(/C(C(=O)C(=O)N2CCOCC2)=C(/O)c2ccccc2)c2ccccc2)cc1,active: 3.98 µM,–
COc1ccc(/C=C/c2nc3ccccc3n2C)cc1,"inconclusive [activator, partial curve]",–
CC(C)C(=O)Nc1nc(-c2ccc3c(c2)CCN3C(=O)C2CC2)cs1,"inconclusive [activator, single point]",–
CCC(=O)Nc1ccc2c(c1)ncn2-c1ccc(C)cc1,active: 2.24 µM,–
S=C(NCc1ccccn1)Nc1ccc(Cl)cc1Cl,"inconclusive [activator, partial curve]",–
N#Cc1ccc(CSc2nnc(-c3ccncc3)n2CCc2ccccc2)cc1,inactive,–
NC(=O)[C@@H]1CCCN1C(=O)c1ccc2oc(CCc3ccccc3)nc2c1,"inconclusive [activator, partial curve]",–
COC(=O)c1cccc(NC(=O)CSc2nnnn2C)c1,inactive,–
O=C(Nc1cccc([N+](=O)[O-])c1)C(=O)N1CCCCC1,"inconclusive [activator, partial curve]",–
Oc1ccc(-c2csc(-c3cccnc3)n2)c(O)c1,"inconclusive [activator, single point]",–
O=C(O)c1ccc(-c2nc(-c3ccc(Cl)c(Cl)c3)cs2)cc1,active: 3.16 µM,–
COCCNC(=O)c1ccc2c3n(nc2c1)-c1ccc(C)cc1CO3,active: 0.708 µM,–
O=C(N/N=C/c1ccc(Br)s1)c1ccncc1,inactive,–

SMILES,Potency,activation
Cc1cc(C(=O)COC(=O)c2cc(Cl)ccc2N)c(C)n1Cc1ccco1,active: 3.55 µM,–
c1ccc(-c2csc(N3CCN(c4ccccn4)CC3)n2)cc1,"inconclusive [activator, partial curve]",–
COCCCNC(=S)N/N=C/c1ccccc1O,"inconclusive [activator, single point]",–
CC1CCN(C(=O)CSCc2ccc(Cl)cc2)CC1,"inconclusive [activator, partial curve]",–
O=C(c1ccc(F)cc1)c1ccc(N2CCCC2)cc1,"inconclusive [activator, partial curve]",–
COc1ccc(C(=O)N/N=C(\C)CC(=O)Nc2ccc3c(c2)OCCO3)c(OC)c1,inactive,–
CCOC(=O)N1CCc2[nH]c3ccc(C)cc3c2C1,inactive,–
Cc1n[nH]c(=O)n1-c1ccc(OCc2ccccc2)cc1,"inconclusive [activator, single point]",–
COc1cc2c(cc1OC)C1O[C@](c3ccsc3)(C2)OC2=C1C(=O)CC(C)(C)C2,–,inactive: 1.02% [at 1.84 µM]
CCNC(=S)N/N=C/c1cc(C)n(-c2ccc(Cl)cc2)c1C,"inconclusive [activator, partial curve]",–
CC1CCCCC1NC(=O)/C(C#N)=C/c1ccccc1F (stereo not drawn),inactive,–
CCCCc1nc2cc(C(=O)N3CCCCC3C(=O)OC)ccc2o1 (stereo not drawn),"inconclusive [activator, single point]",–
CC1CCCCN1C(=O)CSc1nnc(-c2ccccc2F)o1 (stereo not drawn),active: 2.51 µM,–
Clc1cccc(-c2nnc(-c3ccccc3)o2)c1,active: 1.41 µM,–
COc1cccc(NC(=O)Nc2ccc(C(C)(C)C)cc2)c1,"inconclusive [activator, partial curve]",–
Cc1ccc(CNC(=O)C(=O)NCC2CCCN2S(=O)(=O)c2cc(C)ccc2C)cc1 (stereo not drawn),inactive,–
O=C(CSc1cn(Cc2ccccc2)c2ccccc12)N1CCOCC1,"inconclusive [activator, single point]",–
Cc1nc2cc(NC(=O)Nc3cccc(F)c3)ccc2n1C,active: 0.1 µM,–
Clc1ccc(-c2nnc(-c3ccccc3)o2)c(Cl)c1,active: 0.398 µM,–
O=C(Nc1ccc(NC(=O)c2ccco2)c(Cl)c1)c1ccc2c(c1)OCCO2,"inconclusive [activator, single point]",–
Cc1cc(C(=O)COC(=O)c2ccc(O)cc2)c(C)n1-c1ccccc1F,"inconclusive [activator, single point]",–
Cc1ccc2c(c1)COc1c3ccc(C(=O)NCCO)cc3nn1-2,active: 1.12 µM,–
Cc1ccc(C(=O)Cn2cnc3ccccc3c2=O)cc1,"inconclusive [activator, partial curve]",–
O=C(O)c1ccc(N/N=C/c2ccncc2)cc1,"inconclusive [activator, partial curve]",–
CC(/C=N/NC(=O)c1sc(N)nc1C)=C\c1ccccc1,"inconclusive [activator, partial curve]",–
C=CCNc1nc(-c2ccc([N+](=O)[O-])cc2)cs1,"inconclusive [activator, single point]",–

SMILES,Potency,activation
COC(=O)c1cc(CSc2nc3ccccc3[nH]2)oc1C,"inconclusive [activator, partial curve]",–
Cc1ccc(NC(=O)C2COc3ccccc3O2)cc1 (stereo not drawn),active: 2.82 µM,–
C/C(=N\O)c1ccc2c3ccccc3n(C)c2c1,"inconclusive [activator, single point]",–
O=C1Nc2ccccc2S/C1=C/Nc1cccc(Cl)c1,"inconclusive [activator, single point]",–
COc1ccc(CNc2nc(=S)[nH]c3cc(OC)c(OC)cc23)cc1,inactive,–
N#C/C(=C/c1ccc(N2CCOCC2)o1)c1nc2ccccc2[nH]1,active: 3.55 µM,–
COc1cc(Cl)ccc1OCc1cc(C(=O)N(C)CCc2cnn(C)c2)no1,"inconclusive [activator, single point]",–
COCCOC(=O)c1c(C)nc(SCC(=O)Nc2cccc3ccccc23)c(C#N)c1-c1ccco1,inactive,–
CC(=O)Nc1ccc2nc(NC(=O)c3cccnc3)sc2c1,"inconclusive [activator, partial curve]",–
S=C(N/N=C/c1ccccc1Cl)Nc1ccccc1,"inconclusive [activator, partial curve]",–
O=C(CSc1ncn[nH]1)Nc1ccc(Br)cc1F,inactive,–
O=c1oc(-c2ccco2)nc2sc3c(c12)CCCCC3,"inconclusive [activator, single point]",–
Cc1ccc(NC(=O)c2ccc(Cl)c(N3C(=O)CCC3=O)c2)cc1,inactive,–
COc1ccc(CNC(=O)c2oc3ccc(S(=O)(=O)N4CCOCC4)cc3c2C)cc1,inactive,–
Cc1ccc(-c2cc(C(=O)N3CCN(c4ccccc4O)CC3)c3ccccc3n2)o1,"inconclusive [activator, partial curve]",–
O=C(O)c1ccccc1SCc1cn2cc(Br)ccc2n1,"inconclusive [activator, single point]",–
CS(=O)(=O)c1ccc(C(=O)Nc2ccc(-c3nc4ccccc4[nH]3)cc2)cc1,"inconclusive [activator, partial curve]",–
O=S1(=O)CCN(Cc2ccccn2)CC1,inactive,–
Cc1ccc(OCc2cc(C(=O)N3CCCC3)no2)cn1,"inconclusive [activator, partial curve]",–
Cc1cn(CCC(=O)Nc2ccc(N3CCOCC3)cc2)c2ccccc12,"inconclusive [activator, single point]",–
O=[N+]([O-])c1ccccc1CSc1nc2ccccc2o1,"inconclusive [activator, partial curve]",–
O=C(NCC(=O)N1CCCC(C(F)(F)F)C1)c1ccc(Oc2ccccc2)cc1 (stereo not drawn),"inconclusive [activator, partial curve]",–
Clc1cccc(Nc2ncnc3ccc(Br)cc23)c1,"inconclusive [activator, partial curve]",–
CC(C)C(=O)Nc1nc(-c2ccccc2)ns1,active: 3.55 µM,–
Cc1nnc(CN(C)C(=O)c2cc(COc3ccc(F)cc3Cl)on2)o1,active: 2.51 µM,–
COC(=O)c1c(N)sc(C(=O)NCCc2ccccc2)c1C,"inconclusive [activator, partial curve]",–
